From the antibiotic and cytotoxicity screens of Wong et al. (2023) come the findings set out here.

The list shows a part of the results.

For the assay, the system named is HepG2. Description: cytotoxicity call (relative viability < 0.9). To be noted: 10 µM.
As for `C[C@H]1CN([C@@H](C)CO)C(=O)c2cc(NC(=O)Nc3ccccc3)ccc2O[C@H]1CN(C)CC1CCCCC1`, the cytotoxicity call is “inactive”.
In the case of `C[C@H]1CCCCO[C@@H](CN(C)C(=O)Nc2ccccc2)[C@@H](C)CN([C@@H](C)CO)C(=O)c2cc(NS(=O)(=O)c3ccc(F)cc3)ccc2O1` it was “inactive”; in that of `Cc1ccc(Cn2nnc3c(=O)n(CC(N)=O)cnc32)cc1`, “inactive”.
`Cc1noc(C)c1NC(=O)N(C)C[C@H]1Oc2ncc(C#CCN(C)C)cc2C(=O)N([C@@H](C)CO)C[C@H]1C`: the cytotoxicity call was “inactive”.
Regarding `COc1ccc(NC(=O)N(C)C[C@@H]2Oc3c(NC(=O)C4CC4)cccc3C(=O)N([C@H](C)CO)C[C@H]2C)cc1`, the cytotoxicity call is “inactive”.
`C[C@@H]1CN([C@@H](C)CO)S(=O)(=O)c2ccc(C#CC3(O)CCCC3)cc2O[C@@H]1CN(C)C(=O)Nc1ccc(F)cc1`: the cytotoxicity call is “inactive”.
With `C[C@H]1CN([C@@H](C)CO)C(=O)c2cc(NC(=O)Cn3cnnn3)ccc2O[C@H]1CN(C)Cc1ccc(C(=O)Nc2ccccc2N)cc1` the entry was “inactive”.
Turning to `Cc1cc(C(=O)Nc2cccc3c2O[C@@H](CN(C)S(=O)(=O)c2c(C)noc2C)[C@@H](C)CN([C@@H](C)CO)C3=O)n(C)n1`, the cytotoxicity call is “inactive”.
Regarding `CC(C)NC(=O)N(C)C[C@@H]1Oc2c(NS(=O)(=O)c3ccc(Cl)cc3)cccc2C(=O)N([C@H](C)CO)C[C@H]1C`, the cytotoxicity call is “inactive”.
On to `N#Cc1ccc(NCCNC(=N)N)nc1`, for which the cytotoxicity call is “inactive”.
In the case of `COc1ccc(NC(=O)Nc2ccc3c(c2)C(=O)N([C@@H](C)CO)C[C@H](C)[C@H](CN(C)Cc2ccc(Oc4ccccc4)cc2)O3)cc1` it was “inactive”.
In the case of `C[C@H](CO)N1C[C@H](C)[C@@H](CN(C)C(=O)CCCN(C)C)OCCCC[C@H](C)Oc2ccc(NC(=O)Nc3ccc(F)cc3)cc2C1=O` it was “inactive”.
For `CC(C)CC#Cc1ccc2c(c1)O[C@H](CN(C)C(=O)Cc1cccnc1)[C@@H](C)CN([C@@H](C)CO)S2(=O)=O`, the cytotoxicity call is “inactive”.
Consider `COc1ccc(COCCN2C[C@@H](C)[C@H](CN(C)S(=O)(=O)c3ccc(F)cc3)OCCCC[C@H](C)Oc3ccc(NC(=O)Nc4ccccc4)cc3C2=O)cc1`, for which the cytotoxicity call is “inactive”.
Turning to `COC(=O)[C@H]1[C@H](CO)[C@H]2Cn3c(cccc3=O)[C@H]2N1C(=O)C1CC1`, the cytotoxicity call was “inactive”.
With `CC1(C)C(=O)C2CC3(O)C4=CC(=O)OC(c5ccoc5)C4(C)CCC3C(C)(C2=O)C1CC(=O)O` (stereo not given) the entry was “inactive”; with `COc1ccc(S(=O)(=O)Nc2cccc3c2O[C@@H](CN(C)S(=O)(=O)c2c(C)noc2C)[C@H](C)CN([C@@H](C)CO)C3=O)cc1`, “inactive”.
In the case of `C[C@@H]1CN([C@H](C)CO)S(=O)(=O)c2ccc(C3=CCCC3)cc2O[C@@H]1CN(C)S(=O)(=O)c1ccc(F)cc1` it was “inactive”; in that of `Cc1noc(C)c1S(=O)(=O)Nc1ccc2c(c1)CC(=O)N([C@@H](C)CO)C[C@H](C)[C@H](CN(C)S(=O)(=O)c1ccc(Cl)cc1)O2`, “inactive”; in that of `C[C@H]1CN([C@@H](C)CO)C(=O)c2cc(C#CC3CC3)cnc2O[C@@H]1CN(C)S(=O)(=O)c1cccc(F)c1`, “inactive”.
Turning to `C[C@@H]1CN([C@@H](C)CO)C(=O)Cc2cc(NS(=O)(=O)c3cn(C)cn3)ccc2O[C@H]1CN(C)Cc1ccccc1`, the cytotoxicity call was “inactive”.
Turning to `COCCNC(=O)C[C@H]1CC[C@H]2[C@@H](COC[C@@H](O)CN2C(=O)Nc2ccc3c(c2)OCO3)O1`, the cytotoxicity call was “inactive”.
For `COCCNC(=O)CCC(=O)NN=c1nc2ccccc2c2nc(C)[nH]n12`, the cytotoxicity call was “inactive”.
Regarding `C[C@@H]1CN([C@H](C)CO)C(=O)c2cc(NC(=O)C3CCCCC3)ccc2O[C@@H](C)CCCCO[C@H]1CN(C)Cc1ccc(Cl)c(Cl)c1`, the cytotoxicity call was “active”.
`C[C@@H]1CCCCO[C@H](CN(C)CC2CCCCC2)[C@@H](C)CN([C@H](C)CO)C(=O)c2cc(NC(=O)Nc3ccc(F)cc3)ccc2O1`: the cytotoxicity call was “inactive”.
Turning to `COC(=O)Nc1nc2ccc(Sc3ccccc3)cc2[nH]1`, the cytotoxicity call is “active”.
Consider `Cc1noc(C)c1S(=O)(=O)Nc1ccc2c(c1)CC(=O)N([C@@H](C)CO)C[C@H](C)[C@@H](CN(C)Cc1ccc3c(c1)OCO3)O2`, for which the cytotoxicity call was “inactive”.
With `C[C@@H]1CN([C@H](C)CO)C(=O)c2cc(NC(=O)Nc3ccc(C(F)(F)F)cc3)ccc2O[C@@H]1CN(C)C(=O)Nc1ccc(C(F)(F)F)cc1`, the cytotoxicity call is “inactive”.
Turning to `COc1ccc2c3c([nH]c2c1)[C@@H](CO)N(C[C@]13CN(Cc2ccccc2)C1)S(=O)(=O)c1cn(cn1)C`, the cytotoxicity call was “inactive”.
With `OCC1OC(O)(CO)C(O)C1O` (stereo not given), the cytotoxicity call is “inactive”.
